Assay results reported in PubChem BioAssay AID1347073 (National Center for Advancing Translational Sciences (NCATS), 2019).
In all, about 45,000 compounds went through this assay and about 200 (0.44%) were called active. About 7% were inconclusive and are not listed. The call rests on the fitted dose curve; in most records, active means well fitted activation curve with a large enough effect; inconclusive means small, poorly fitted or top-dose-only effect; inactive means no such curve, though single readings can be large or run the other way. This is one part of the list.

assay: qHTS of TDP-43 Inhibitors: NCGC Sytravon Library Screen; conditions: yeast TDP-43 toxicity rescue, BacTiter-Glo growth, 24 h; series mostly up to 46.1 µM; growth rescue (activation): at the top concentration; further: 0% is about no effect; nearly all actives have a fitted effect of over 55% in size
Outline: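 TDP-43-expressing yeast, pregrown in raffinose, seeded at OD600 0.02 in galactose medium with compound for 24 hr at 30 deg C. Growth read by BacTiter-Glo luminescence, so rescue of toxicity appears as activation.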

Row | Compound | growth rescue (activation)
1 | O=[N+]([O-])c1ccc(/C=N/Nc2ccnc3cc(Cl)ccc23)o1 | inactive: 11.4%
2 | O=C(CCC(=O)NNc1nc2ccccc2c2nc(-c3ccccc3)nn12)NCCCN1CCCC1=O | inactive: 2.23%
3 | COCCNC(=S)N(Cc1cc2cc(C)ccc2n2nnnc12)C1CCCC1 | inactive: 4.35%
4 | Cc1nn(CC(=O)NNC(=O)c2ccccc2F)c([N+](=O)[O-])c1Br | inactive: 9.82%
5 | O=C(Cc1nnc(NC(=O)c2cccc([N+](=O)[O-])c2)s1)NCc1ccccc1 | inactive: 2.42%
6 | O=C(Nc1ccccc1C(=O)NC(Cc1c[nH]c2ccccc12)C(=O)O)c1ccccc1 (configuration not stated) | inactive: -18.7%
7 | COc1ccccc1N(C)S(=O)(=O)c1ccc(C(=O)OCC(=O)N(C(C)C)C(C)C)cc1 | inactive: -8.97%
8 | O=C(NC1CCCC1)C1CCN(C(=O)c2cccc(Cl)c2)CC1 | inactive: 13%
9 | COc1ccc2nc(SCC(N)=O)cc(C)c2c1 | inactive: 40.5%
10 | CC1CN(C(C)C(=O)NC(c2ccccc2)c2ccccc2)CC(C)O1 (configuration not stated) | inactive: -2.9%
11 | C(=N\n1cnnc1SCc1ccccc1)/c1ccco1 | inactive: 11.8%
12 | Cn1c(=O)[nH]c(=O)c2c1nc(SCCC(=O)O)n2Cc1cccc(Br)c1 | inactive: -2.21%
13 | Cc1ccccc1Nc1nc(N)nc(CSCC(=O)Nc2cccc(Br)c2)n1 | inactive: 1.05%
14 | CCCCCn1c(=N)c(S(=O)(=O)c2ccc(Cl)cc2)cc2c(=O)n3cccc(C)c3nc21 | inactive: 1.59%
15 | CN(C)CCCNc1nc(N)c([N+](=O)[O-])c(NCCO)n1 | inactive: -6.75%
16 | C=CCOc1ccc(Br)cc1CNCCCN1CCOCC1 | inactive: 0.24%
17 | CCOC(=O)c1c(-c2ccccc2)csc1NC(=O)/C(C#N)=C/c1ccc(O)c(OC)c1 | inactive: 18.8%
18 | CCc1nc(SCC(=O)Nc2nnc(CC(C)C)s2)n[nH]1 | inactive: 11.4%
19 | CC(CN1CCN(Cc2ccccc2)CC1)OC(=O)c1ccco1 (configuration not stated) | inactive: -10.5%
20 | O=C(c1cc(S(=O)(=O)N2CCOCC2)c(Cl)cc1Cl)N1CCCCC1CO (configuration not stated) | inactive: 27.9%
21 | O=C(NC1CCCCC1)c1cc(-c2cccc(Cl)c2)on1 | inactive: 15.9%
22 | COc1ccc(S(=O)(=O)N2CCN(C(=S)NCCc3ccccc3)CC2)cc1 | inactive: 15%

Row | Compound | growth rescue (activation)
23 | O=C(c1ccoc1)N1CCC2(CCCN(Cc3ccc(F)c(F)c3)C2)C1 (configuration not stated) | inactive: 13.1%
24 | O=C(CSc1ncccn1)Nc1cccc(S(=O)(=O)N2CCOCC2)c1 | inactive: 10.4%
25 | CN(C)S(=O)(=O)c1ccc(NC(=O)c2ccncc2)cc1 | inactive: -9%
26 | O=C(CC1C(=O)NCCN1Cc1ccc(F)c(F)c1)NCCn1cccn1 (configuration not stated) | inactive: 8.4%
27 | Cc1cc2ccccc2n2c(SCC(=O)Nc3ccc(S(=O)(=O)N4CCC(C)CC4)cc3)nnc12 | inactive: 4.91%
28 | CCOC(=O)C(CC)n1nc(C)n2c(cc3occc32)c1=O (configuration not stated) | inactive: -13%
29 | Cc1ccc(O)c(C(=O)c2cnc3onc(-c4ccc(F)cc4)c3c2)c1 | inactive: 4.55%
30 | COc1ccc(C2(CNS(=O)(=O)c3ccc(C)cc3)CCOCC2)cc1 | inactive: 2.75%
31 | Cc1cc(C)n(-c2cc(N3CCN(S(=O)(=O)c4ccc(Cl)cc4)CC3)ccc2[N+](=O)[O-])n1 | inactive: 14%
32 | CC(NC(=O)CCCc1c[nH]c2ccccc12)c1ccc(F)cc1 (configuration not stated) | inactive: 13.8%
33 | CC#CC[N+](C)(C)CCCCCCCCCC | inactive: 2.2%
34 | CC(=O)N/C(=C\c1ccc2c(c1)OCO2)C(=O)NC(C(=O)O)c1ccccc1 (configuration not stated) | inactive: 2.06%
35 | COc1ccc(NS(=O)(=O)c2cccc(C(=O)NN=Cc3cc(Br)c(O)c(Br)c3)c2)cc1 | inactive: -0.982%
36 | COc1cccc(NC(=O)Cn2cc(C(=O)C3CC3)c3ccccc32)c1 | inactive: 17.8%
37 | O=C(O)c1cnn2c(-c3ccc(F)cc3)ccnc12 | inactive: 11.1%
38 | O=C(CCCOc1ccc(Cl)cc1Cl)Nc1ccc(O)cc1C(=O)O | inactive: 7.61%
39 | COc1ccccc1NC(=O)CSc1nnc(CNC(=O)c2ccco2)n1C | inactive: 2.35%
40 | COc1ccccc1C(=O)NCCCNC(=O)c1cnccn1 | inactive: -26.6%
41 | CC(=O)NS(=O)(=O)c1ccc(NC(=O)c2ccccn2)cc1 | inactive: 7.99%
42 | O=C(CNC(c1ccccc1)c1ccccc1)Nc1c(F)cccc1F | inactive: 13.2%
43 | OC(c1ccc(F)c(F)c1)c1nc(-c2ccoc2)cs1 (configuration not stated) | inactive: 18.2%
44 | Nc1cc(=O)[nH]c(SCC(=O)NC2CCCCCCC2)n1 | inactive: -16.3%

Row | Compound | growth rescue (activation)
45 | Cc1noc(C)c1COc1ccc(CC(=O)NCCc2ccccn2)cc1 | inactive: 6.99%
46 | Cc1cc(NC(=O)CN2C(=O)[C@@H]3[C@H](C2=O)[C@@H]2C[C@H]3C(Br)C2Br)no1 (some centres not stated) | inactive: -26.5%
47 | O=C(CNC(=O)C12CC3CC(CC(C3)C1)C2)N1CCN(S(=O)(=O)/C=C/c2ccccc2)CC1 | inactive: 10.9%
48 | O=C(O)CCCNC(=O)/C(=C\C=C\c1ccccc1)NC(=O)c1ccccc1Cl | inactive: 3.29%
49 | CCCCOc1cccc(C2c3c(oc4ccccc4c3=O)C(=O)N2c2ccccn2)c1 (configuration not stated) | inactive: 5.4%
50 | O=C1NCCN(Cc2c(F)cccc2Cl)C1CC(=O)N1CCCO1 (configuration not stated) | inactive: 13%
51 | CCc1ccc(OCC(=O)N(CC)CC)cc1 | inactive: 5.54%
52 | Cc1cccc2cc(/C=N/NC(=O)c3ccccc3O)c(Cl)nc12 | inactive: 11.8%
53 | COc1ccccc1CNC(=O)C1(C)CCCCN1C (configuration not stated) | inactive: -0.568%
54 | Cc1ccc(NC(=Nc2ccc(Br)cc2)N2CCOCC2)cc1C | inactive: 7.79%
55 | COc1ccc(O)c(C=NCC(C)N=Cc2cc(OC)ccc2O)c1 (configuration not stated) | inactive: -15.2%
56 | COc1ccccc1-n1nnnc1SCC(=O)Nc1ccc(C)c(N)c1 | inactive: 3.85%
57 | O=C(O)Cn1c2ccccc2c2ccccc21 | inactive: 11.2%
58 | CC(=O)NC(c1ccccc1)c1nc(-c2csc3ccccc23)cs1 (configuration not stated) | inactive: 16.1%
59 | Nc1ccc(S(=O)(=O)NC2(C(F)(F)F)NC(=O)N(c3ccc(F)cc3)C2=O)cc1 (configuration not stated) | inactive: 4.87%
60 | O=C(CCc1nnc(-c2ccccc2)o1)c1ccc(Cl)cc1 | inactive: -15.8%
61 | CC1(C(=O)NS(=O)(=O)c2ccc(Cl)cc2)CCN1C(=O)Cc1ccc(Cl)cc1Cl (configuration not stated) | inactive: 5.22%
62 | Cc1cc(C)c(S(=O)(=O)N(C)CC(=O)NCCN2CCOCC2)c(C)c1 | inactive: -13.6%
63 | COc1cccc(NC(=O)c2ccc(NS(=O)(=O)c3cccs3)cc2)c1 | inactive: 10.9%
64 | Cc1cc(NS(=O)(=O)c2ccc(NC(=O)CCCC(=O)O)cc2)nc(C)n1 | inactive: 13.3%
65 | Cc1ccc(NC(=O)Cc2ccsc2)cc1S(=O)(=O)N1CCOCC1 | inactive: 1.5%
66 | CC1CC(=O)N(c2ccc(NCc3ccccc3Cl)c([N+](=O)[O-])c2)C1=O (configuration not stated) | inactive: 20.2%

Row | Compound | growth rescue (activation)
67 | CCCC(=O)Nc1ccc(Nc2ccccc2)cc1 | inactive: 6.76%
68 | O=C(CSc1nnc2ncccn12)Nc1cccc2ccccc12 | inactive: -9.11%
69 | COCCNC(=O)CN(C(=O)Cn1nnc2ccccc21)c1cc(C)cc(C)c1 | inactive: -1.27%
70 | Cc1ccc(C(=O)N/C(=C/c2ccc(Cl)cc2)C(=O)N2CCOCC2)cc1 | inactive: 12.5%
71 | O=C(O)CCn1c(=O)n(CCC(=O)O)c(=O)n(CCC(=O)O)c1=O | inactive: -10.1%
72 | COc1ccccc1OCC(=O)Nc1ccc2c(c1)OCCO2 | inactive: 29.8%
73 | CC1CC2=C(NC(=S)NC2c2ccccc2F)/C(=C/c2ccccc2F)C1 (configuration not stated) | inactive: 16%
74 | CCOc1cc(/C=N/n2c(C)nc3sc(C)c(C)c3c2=O)ccc1O | inactive: -1.65%
75 | COc1ccc2oc(N)c(C=O)c(=O)c2c1 | inactive: -20.7%
76 | O=C(CSc1ccc(F)cc1)Nc1cccc(S(=O)(=O)N2CCOCC2)c1 | inactive: -0.66%
77 | O=C(NCCOc1ccc(F)cc1)C1CCN(S(=O)(=O)c2ccccc2)CC1 | inactive: 10.1%
78 | CCN(CC)S(=O)(=O)c1ccc(N2CCOCC2)c(NC(=O)CC23CC4CC(CC(Br)(C4)C2)C3)c1 | inactive: 21.7%
79 | CCC(=O)Nc1nonc1-c1nc2ccccc2n1CC(C)C | inactive: 20.9%
80 | COC(=O)c1ccc(NC(=S)Nc2ccc(O)cc2)cc1 | inactive: 7.15%
81 | O=C(CNCc1ccc(Cl)cc1)Nc1ccc(C(=O)N2CCCCC2)cc1 | inactive: -4.07%
82 | Cc1[nH]n(-c2ccccc2)c(=O)c1N=Nc1cccc([N+](=O)[O-])c1 | inactive: -5.92%
83 | COC(=O)c1ccc(Cn2cc(C(F)(F)F)cc([N+](=O)[O-])c2=O)cc1 | inactive: 14.3%
84 | CCCCC(C(=O)NC1CCCC1)N(Cc1ccccc1)C(=O)c1snc(C(N)=O)c1N (configuration not stated) | inactive: -5.24%
85 | Cc1ccccc1OCC(=O)NCCCNC(=O)c1cccnc1 | inactive: 7.86%
86 | COC(=O)COc1ccc(-c2ccccc2)cc1C=O | inactive: -55.5%
87 | Cc1ccc(SCC(=O)Nc2ccc(S(=O)(=O)Nc3ncccn3)cc2)cc1 | inactive: -2.95%
88 | Cc1cc(C(=O)Nc2nnc(C(F)(F)F)s2)cs1 | inactive: 5.1%

Row | Compound | growth rescue (activation)
89 | C=CCn1c(=O)c2ccccc2n2c(SCC(=O)N(C)C)nnc12 | inactive: -3.29%
90 | Cc1ccc(S(=O)(=O)N2CCOCC2)cc1C(=O)N1CCCC1 | inactive: -23.7%
91 | O=C(NCc1ccco1)/C(=C\c1cccs1)NC(=O)c1ccco1 | inactive: -4.69%
92 | CCOC(=O)CC1C(=O)NCCN1S(=O)(=O)c1ccccc1 (configuration not stated) | inactive: -4.01%
93 | CN(C)CCOC(=O)NC12CC3CC(CC(C3)C1)C2 | inactive: 1.91%
94 | COC(=O)c1cc(NC(=O)COC(=O)CN2C(=O)C3CC=CCC3C2=O)cc(C(=O)OC)c1 (configuration not stated) | inactive: 6.04%
95 | O=C(O)c1ccccc1OC(C(=O)Nc1cc(Cl)cc(Cl)c1)c1ccccc1 (configuration not stated) | inactive: -3.72%
96 | O=C(O)CCCNc1n[nH]c(=O)[nH]c1=O | inactive: -1.09%
97 | CSc1ccccc1NC(=O)Cn1ccsc1=N | inactive: 8.56%
98 | Cc1cccc(/C=N/n2c(-c3ccccc3)n[nH]c2=S)c1O | inactive: 7.03%
99 | CSC1=C(C#N)C(c2sccc2C)CC(=O)N1 (configuration not stated) | inactive: 1.78%
100 | Cc1cccc(N(C(=O)c2snc(C(N)=O)c2N)C(C(=O)NCc2ccccc2)c2ccncc2)c1 (configuration not stated) | inactive: 15.6%
101 | COc1ccccc1C1C(C(N)=O)=C(C)Nc2nc(CCCO)nn21 (configuration not stated) | inactive: -7.28%
102 | CCOC(=O)C(Cc1ccc(NC(=O)/C(=C\c2ccccc2)NC(=O)c2ccccc2)cc1)N1C(=O)c2ccccc2C1=O (configuration not stated) | inactive: 12.7%
103 | CNc1c(NS(=O)(=O)c2ccc(CC(C)C)cc2)c(=O)oc2ccccc12 | inactive: 10.5%
104 | CC1CCC(NC(=O)CSc2nncn2C)CC1 (configuration not stated) | inactive: 2.42%
105 | COc1cccc(N(CC(=O)NCC2CCCO2)C(=O)CNS(=O)(=O)c2ccccc2)c1 (configuration not stated) | inactive: -19.3%
106 | Nc1nnc(SCC(=O)Nc2cccc(S(N)(=O)=O)c2)s1 | inactive: 1.51%
107 | Cc1ccc2c(C)c(C(=O)N(C)CCC3CCCCO3)oc2c1C (configuration not stated) | inactive: 4.76%
